From PubChem BioAssay AID1240 (Sanford-Burnham Center for Chemical Genomics, 2008)
About 800 (1.6%) of roughly 50,000 compounds showed an effect of 50% or more. Some of the results follow.

These compounds were tested against Bcl-2-like protein 10 (Homo sapiens) (UniProt Q9HD36) (assay: TR3 peptide-Bcl-B binding displacers, biochemical primary FP assay, phenotype converters (AID 1240;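 note: 0% = Bcl-B with tracer peptide and DMSO and 100% = tracer peptide lacking Bcl-B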)). Conditions: GST-Bcl-B / FITC-TR3 peptide fluorescence polarization; stronger effect = higher value; compound at 3.75 mg/L.
Chain of UniProt Q9HD36 (Q9HD36 whole entry, looked up): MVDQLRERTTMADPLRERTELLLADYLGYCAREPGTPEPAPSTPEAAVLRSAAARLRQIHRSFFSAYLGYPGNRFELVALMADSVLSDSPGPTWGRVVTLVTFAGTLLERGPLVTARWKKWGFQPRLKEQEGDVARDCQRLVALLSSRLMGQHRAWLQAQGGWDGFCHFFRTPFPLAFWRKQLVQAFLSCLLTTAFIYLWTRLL

Question: For O=C1C(=O)N(c2cccc(Br)c2)C(c2ccccc2[N+](=O)[O-])/C1=C(/O)c1ccccc1 (stereo not given), which displacement is on record?
Answer: -6.8%

Question: How did the displacement turn out when Cc1cc(/C=C2\SC(=O)NC2=O)c(C)n1-c1ccc(-c2ccccc2)cc1 was run?
Answer: -11%

Question: With COc1ccccc1C/C(N)=N/OC(=O)c1ccccc1Br as the compound, how does the displacement read?
Answer: 7.1%

Question: With COc1ccc(N2C(=O)/C(=C\c3ccc(O)c([N+](=O)[O-])c3)SC2=S)cc1 as the compound, how does the displacement read?
Answer: -3.1%

Question: How did the displacement turn out when O=C1C(=Cc2ccc(O)c(Cl)c2)C(=O)c2ccccc21 was run?
Answer: -3.8%

Question: COc1cccc(-c2nc3ncc(Br)cc3[nH]2)c1OC was tested. Which displacement did it give?
Answer: 19.9%

Question: With Oc1ccccc1C(O)(c1ccccc1)c1ccccc1 as the compound, how does the displacement read?
Answer: 3%

Question: With COc1cc(NC(=O)CCCOc2ccccc2)c(OC)cc1Cl as the compound, how does the displacement read?
Answer: 71.9%

Question: With COc1ccc(Br)cc1C(=O)Nc1ccccc1O as the compound, how does the displacement read?
Answer: 2%

Question: Which displacement does the source give for O=C(c1cc2ccccc2oc1=O)N1CCN(C(c2ccccc2)c2ccccc2)CC1 here?
Answer: 5.1%

Question: For CCCC1=NN2C(=N)/C(=C/c3ccc(-c4ccc(F)cc4)o3)C(=O)N=C2S1, which displacement is on record?
Answer: 135%

Question: How did the displacement turn out when Cc1cccc(OCC(=O)Nc2ccc(N3CCOCC3)cc2)c1 was run?
Answer: 1.8%

Question: Which displacement does the source give for CN1CCN(NC(=O)COc2ccc(Cl)cc2)CC1 here?
Answer: 3.3%

Question: Which displacement does the source give for Cc1ccc(NC(=O)c2ccn(C(=O)Nc3ccccc3)n2)c(C)c1 here?
Answer: -1.6%

Question: Which displacement does the source give for CC(C)CC(=O)NC(NC(=O)CC(C)C)c1cccc([N+](=O)[O-])c1 here?
Answer: -11.2%

Question: Which displacement does the source give for CC(=O)C1=C(O)C(=O)N(c2nc3ccccc3s2)C1c1ccc(Cl)cc1Cl (stereo not given) here?
Answer: 6.7%

Question: Which displacement does the source give for NC(=O)c1ccccc1NC(=O)c1ccccc1F here?
Answer: 11.7%

Question: For CC(=O)Oc1ccc(C(=O)Nc2ccccc2C(=O)NCC(C)C)cc1, which displacement is on record?
Answer: 10%

Question: How did the displacement turn out when COc1ccc(/C(N)=N/OC(=O)c2ccccc2F)cc1 was run?
Answer: 17.5%

Question: How did the displacement turn out when O=C(NCc1ccccc1)NC(=O)c1ccccc1F was run?
Answer: -3.1%

Question: Cc1ccc(S(=O)(=O)/N=C/c2ccco2)cc1 was tested. Which displacement did it give?
Answer: 5.6%

Question: Which displacement does the source give for Nc1cc(Cl)c(S(=O)(=O)N2CCOCC2)cc1S(=O)(=O)N1CCOCC1 here?
Answer: -4.4%

Question: For Cc1cccc(N2C(=O)C(=O)/C(=C(\O)c3ccccc3)C2c2ccc([N+](=O)[O-])cc2)c1 (stereo not given), which displacement is on record?
Answer: 2.9%

Question: COc1cc(C(=O)Nc2ccc(/C=C/C(=O)c3ccccc3)cc2)cc(OC)c1OC was tested. Which displacement did it give?
Answer: -8.2%

Question: c1ccc(C(c2ccccc2)N2CCN(c3nc4ccccc4n4cnnc34)CC2)cc1 was tested. Which displacement did it give?
Answer: 5.7%

Question: Which displacement does the source give for CCOC(=O)/C(N=Nc1cccc(C)c1C)=C(/C)O here?
Answer: 1.2%

Question: How did the displacement turn out when Cc1cc(OCC(=O)N2CCN(c3ccc([N+](=O)[O-])cc3)CC2)ccc1Cl was run?
Answer: 14.5%

Question: For O=C1C2C3C=CC(C4CC34)C2C(=O)N1c1ccccc1Cl (stereo not given), which displacement is on record?
Answer: 19.3%

Question: With O=C(CSc1cccc2cccnc12)N1CCOCC1 as the compound, how does the displacement read?
Answer: -2.3%

Question: For Cc1ccccc1C(=O)NNC(=O)c1ccc2ccccc2c1, which displacement is on record?
Answer: -4.7%
